In the supplement of paper PMC12297408:
Counter-ions that a name gives are not always drawn. Screen size: about 1,300 compounds; about 40 (3%) showed activity. Some of the results follow.

Tested on: Plasmodium falciparum NF54/iGP1_RE9H ulg8 stage V gametocytes
Experiment: gametocyte viability (luciferase signal relative to DMSO control) (% of DMSO control); higher = less gametocytocidal activity, active = 50 or less
Details: exposure time: 72 h
In short: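 Compounds from 10 mM DMSO stocks were spotted at nanolitre scale into 96-well plates, and day-12 stage V NF54/iGP1_RE9Hulg8 gametocytes (~2.5% gametocytemia, 3% hematocrit; medium with 0.5% Albumax II) were added to reach 10 µM or 1 µM, one well per concentration. The plates were kept at 37 °C for 72 h. Luminescence was then read on an IVIS Lumina II after mixing 90 µl of culture with 10 µl D-luciferin (30 mg/ml). Viability values are relative to the plate's mean DMSO vehicle signal.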

SMILES | gametocyte viability (concentration: 1 µM) | gametocyte viability (concentration: 10 µM)
CCCCN(CCCC)CCC(O)c1cc2c(Cl)cc(Cl)cc2c2cc(C(F)(F)F)ccc12 (centres undefined) [Halofantrine hydrochloride] | inactive: 84.7 | inactive: 70.2
Nc1nc2c(ncn2COCCO)c(=O)[nH]1 [Acyclovir] | inactive: 98.3 | inactive: 90.8
CC(C)(C)NC(=O)[C@@H]1C[C@@H]2CCCC[C@@H]2CN1C[C@@H](O)[C@H](Cc1ccccc1)NC(=O)[C@H](CC(N)=O)NC(=O)c1ccc2ccccc2n1 [Saquinavir mesylate] | inactive: 82.4 | inactive: 78.9
CCCCCN(CCCCC)C(=O)C(CCC(=O)O)NC(=O)c1ccc(Cl)c(Cl)c1 (centres undefined) [Lorglumide sodium salt] | inactive: 93.2 | inactive: 91.3
COc1c(N2C[C@@H]3CCCN[C@@H]3C2)c(F)cc2c(=O)c(C(=O)O)cn(C3CC3)c12 [Moxifloxacin] | inactive: 83.8 | inactive: 81.1
COc1ccc(C(=O)c2ccccc2)c(O)c1 [Oxybenzone] | inactive: 89.3 | inactive: 84.8
COc1ncnc(NS(=O)(=O)c2ccc(N)cc2)c1OC [Sulfadoxine] | inactive: 96.5 | inactive: 92.9
CC(=O)OCC(=O)[C@@]1(O)[C@H](C)C[C@H]2[C@@H]3CCC4=CC(=O)C=C[C@]4(C)[C@@]3(F)[C@@H](O)C[C@@]21C [Dexamethasone acetate] | inactive: 83.3 | inactive: 84.6
COc1ccc(C(=O)CC(=O)c2ccc(C(C)(C)C)cc2)cc1 [Avobenzone] | inactive: 80.5 | inactive: 78.8
OC(c1cc(C(F)(F)F)nc2c(C(F)(F)F)cccc12)C1CCCCN1 (centres undefined) [Mefloquine hydrochloride] | inactive: 83.9 | inactive: 78
CNCCCC12CCC(c3ccccc31)c1ccccc12 [Maprotiline hydrochloride] | inactive: 90.7 | inactive: 79.7
C[C@@H]1C[C@H]2[C@@H]3C[C@H](F)C4=CC(=O)C=C[C@]4(C)[C@@]3(Cl)[C@@H](O)C[C@]2(C)[C@H]1C(=O)COC(=O)C(C)(C)C [Clocortolone pivalate] | inactive: 86.8 | inactive: 82.4
C[C@@H](O)[C@H]1C(=O)N2C(C(=O)O)=C(S[C@@H]3CN[C@H](C(=O)N(C)C)C3)[C@H](C)[C@H]12 [Meropenem] | inactive: 80.4 | inactive: 79.3
CC(=O)O[C@H]1C[C@@H]2CC[C@@H]3[C@H](CC[C@@]4(C)[C@H]3C[C@H]([N+]3(C)CCCCC3)[C@@H]4OC(C)=O)[C@@]2(C)C[C@@H]1N1CCCCC1 [Vecuronium bromide] | inactive: 85.2 | inactive: 93.1
CC1(C)O[C@@H]2C[C@H]3[C@@H]4CCC5=CC(=O)CC[C@]5(C)[C@@]4(F)[C@@H](O)C[C@]3(C)[C@]2(C(=O)CCl)O1 [Halcinonide] | inactive: 88.3 | inactive: 76.8
C[C@]12C=CC(=O)C=C1CC[C@H]1[C@@H]3C[C@@H](O)[C@](O)(C(=O)CO)[C@@]3(C)C[C@H](O)[C@@]12F [Triamcinolone] | inactive: 91.2 | inactive: 88.2
CCN(CC)C(=O)/C(C#N)=C/c1cc(O)c(O)c([N+](=O)[O-])c1 [Entacapone] | inactive: 86.2 | inactive: 90.1
CN(C/C=C/c1ccccc1)Cc1cccc2ccccc12 [Naftifine hydrochloride] | inactive: 83.3 | inactive: 79.5
CC(=O)CCCCn1c(=O)c2c(ncn2C)n(C)c1=O [Pentoxifylline] | inactive: 82.3 | inactive: 83.7

SMILES | gametocyte viability (concentration: 1 µM) | gametocyte viability (concentration: 10 µM)
CN1C(=O)OC(C)(C)C1=O [Trimethadione] | inactive: 82.9 | inactive: 88.6
OCCN1CCN(CCCN2c3ccccc3C=Cc3ccccc32)CC1 [Opipramol dihydrochloride] | inactive: 90.6 | inactive: 98.5
CC(C)NC[C@H](O)COc1cccc2ccccc12 [(S)-propranolol hydrochloride] | inactive: 86.8 | inactive: 87.3
NS(=O)(=O)c1cc(Cl)c(Cl)c(S(N)(=O)=O)c1 [Dichlorphenamide] | inactive: 99.1 | inactive: 97.8
CCCCCNC(=N)N/N=C/c1c[nH]c2ccc(OC)cc12 [Tegaserod maleate] | inactive: 88.4 | active: 6.12
CCN1CCCC(OC(=O)C(c2ccccc2)c2ccccc2)C1 (centres undefined) [Piperidolate hydrochloride] | inactive: 82.8 | inactive: 86.5
C[C@H](Cc1cc2c(c(C(N)=O)c1)N(CCCO)CC2)NCCOc1ccccc1OCC(F)(F)F [Silodosin] | inactive: 84.5 | inactive: 84
Cc1onc(-c2c(F)cccc2Cl)c1C(=O)N[C@@H]1C(=O)N2[C@@H]1SC(C)(C)[C@@H]2C(=O)O [Flucloxacillin sodium] | inactive: 90.2 | inactive: 87.3
CN(C)CCCSC(=N)N [Dimaprit dihydrochloride] | inactive: 91.2 | inactive: 89.9
O=C(NCCN1CCOCC1)c1ccc(Cl)cc1 [Moclobemide] | inactive: 84.9 | inactive: 86.1
N=C(N)NCc1cccc(I)c1 [Iobenguane sulfate] | inactive: 99.3 | inactive: 100
NC(=O)OCC(COC(N)=O)c1ccccc1 [Felbamate] | inactive: 81.3 | inactive: 83.8
C[C@H]1NC(=O)NC1=O [Methylhydantoin-5-(D)] | inactive: 88.5 | inactive: 88.5
Cc1ccnc(NS(=O)(=O)c2ccc(N)cc2)n1 [Sulfamerazine] | inactive: 88.8 | inactive: 88.3
CNC[C@H](O)[C@@H](O)[C@H](O)[C@H](O)CO [Meglumine] | inactive: 89.7 | inactive: 82.4
Nc1ccc(S(=O)(=O)Nc2cnc3ccccc3n2)cc1 [Sulfaquinoxaline sodium salt] | inactive: 91.2 | inactive: 84.6
NCCCC(O)(P(=O)(O)O)P(=O)(O)O [Alendronate sodium] | inactive: 78.2 | inactive: 80
CCCCNc1cc(C(=O)O)cc(S(N)(=O)=O)c1Oc1ccccc1 [Bumetanide] | inactive: 92.3 | inactive: 92.1
CNC(=O)c1c(I)c(C(=O)NCC(=O)Nc2c(I)c(C(=O)O)c(I)c(C(=O)NCCO)c2I)c(I)c(N(C)C(C)=O)c1I [Ioxaglic acid] | inactive: 83.2 | inactive: 87.8

SMILES | gametocyte viability (concentration: 1 µM) | gametocyte viability (concentration: 10 µM)
CC(=O)Oc1ccccc1C(=O)Oc1ccccc1C(=O)O [Acetylsalicylsalicylic acid] | inactive: 97.3 | inactive: 94.6
CC(C)n1c(/C=C/C(O)CC(O)CC(=O)O)c(-c2ccc(F)cc2)c2ccccc21 (centres undefined) [Fluvastatin sodium salt] | inactive: 89.5 | inactive: 91.9
CCN(CC)CCOC(=O)c1ccc(N)cc1 [Procaine hydrochloride] | inactive: 99.1 | inactive: 94.8
Cc1c(C)c2c(c(C)c1O)CCC(C)(C(=O)O)O2 (centres undefined) [Trolox] | inactive: 88.2 | inactive: 87.5
CC[C@H](C)C(=O)O[C@H]1C[C@@H](C)C=C2C=C[C@H](C)[C@H](CC[C@@H]3C[C@@H](O)CC(=O)O3)[C@H]21 [Lovastatin] | inactive: 85.3 | inactive: 81.4
CN(C)CCn1nnnc1SCC1=C(C(=O)O)N2C(=O)[C@@H](NC(=O)Cc3csc(N)n3)[C@H]2SC1 [Cefotiam hydrochloride] | inactive: 85 | inactive: 82.3
CC(=O)N[C@@H](CS)C(=O)O [Acetylcysteine] | inactive: 92.9 | inactive: 89.2
CC(=O)O[C@H]1C[C@@]2(C)[C@@H](C[C@@H](O)[C@H]3[C@@]4(C)CC[C@@H](O)[C@@H](C)[C@@H]4CC[C@@]32C)/C1=C(\CCC=C(C)C)C(=O)O [Fusidic acid sodium salt] | inactive: 83 | inactive: 85.5
CC1=C(/C=C/C(C)=C/C=C/C(C)=C/C(=O)O)C(C)(C)CCC1 [Retinoic acid] | inactive: 82.1 | inactive: 64
NC(=O)c1cc[n+](CC2=C(C(=O)[O-])N3C(=O)[C@@H](NC(=O)[C@@H](c4ccccc4)S(=O)(=O)O)[C@H]3SC2)cc1 [Cefsulodin sodium salt] | inactive: 89.2 | inactive: 87.7
CC(=O)Oc1ccccc1C(=O)O [Acetylsalicylic acid] | inactive: 81.5 | inactive: 84.8
N=C(N)NS(=O)(=O)c1ccc(N)cc1 [Sulfaguanidine] | inactive: 90.6 | inactive: 94.3
CC1(C)[C@H](C(=O)O)N2C(=O)C[C@H]2S1(=O)=O [Sulbactam] | inactive: 86.3 | inactive: 90
Cc1ncc(CO)c(CO)c1O [Pyridoxine hydrochloride] | inactive: 106 | inactive: 101
CCc1c(C)[nH]c2c1C(=O)C(CN1CCOCC1)CC2 (centres undefined) [Molindone hydrochloride] | inactive: 86.1 | inactive: 84.6
CCC1(c2ccccc2)NC(=O)N(C)C1=O (centres undefined) [Mephenytoin] | inactive: 83 | inactive: 77
N[C@@H]1CONC1=O [D-cycloserine] | inactive: 86.9 | inactive: 85.8
O=C(O)COCCN1CCN(C(c2ccccc2)c2ccc(Cl)cc2)CC1 (centres undefined) [Cetirizine dihydrochloride] | inactive: 96.2 | inactive: 96
C#C[C@]1(OC(C)=O)CC[C@H]2[C@@H]3CCC4=CC(=NO)CC[C@@H]4[C@H]3CC[C@@]21CC (mixture of isomers) [Norgestimate] | inactive: 82.8 | inactive: 85.1
